Measured values as given in PubChem BioAssay AID588855 (National Center for Advancing Translational Sciences (NCATS), 2011).
Out of some 410,000 compounds screened, about 5,000 (1.2%) were called active. This list was built around the results that the source calls inconclusive (neither active nor inactive); the mix of calls is not that of the screen. Calls come from the whole dose curve; as a rule, active = well fitted inhibition curve with a large enough effect; inconclusive = small, poorly fitted or top-dose-only effect; inactive = no such curve, though single readings can be large or run the other way. Potencies beside an inconclusive call are fits to weak or partial responses and may not hold up.
% is set by controls: 0 for no effect and ±100 for the full control effect; potency is the fitted concentration of half-maximal effect; tags give direction and shape of the fitted curve.

Assay: qHTS for Inhibitors of TGF-b; note: nearly all actives have a fitted effect of over 65% in size
Conditions: HepG2 CAGA-GFP TGF-b/SMAD3 reporter, GFP fluorescence, 18 h, TGF-beta stimulated, 500 pg/mL final; series mostly up to 46.1 µM; activity, negative = inhibition: at the top concentration
In short: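 Inhibition of TGF-beta-driven CAGA-GFP reporter expression in HEPG2 cells is measured by cellular GFP fluorescence after 18 h stimulation with 500 pg/mL recombinant TGF-beta in 1% FBS medium at 37 degrees C.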
In the case of `O=C(N/N=C/c1cn(-c2ccccc2)nc1-c1ccc(F)cc1)c1ccc(Br)o1`, the “activity, negative = inhibition” value is reported as inactive: -13.8%. In the case of `FC(F)(F)c1cccc(-c2nc3nc(Cl)c(Cl)nc3[nH]2)c1`, the Potency is reported as active: 2.24 µM. With `CCCC(=O)NC1CCc2cc(OC)c(OC)c(OC)c2-c2ccc(OC)c(=O)cc21` (centres undefined) the Potency was inconclusive: 0.316 µM [inhibitor, full curve, poor fit]. For `CC(C)C(=O)NCC(c1ccc2c(c1)OCO2)N1CCN(c2ccccc2F)CC1` (centres undefined), the “activity, negative = inhibition” value was inactive: -0.504%. For `O=C(CNS(=O)(=O)c1cccs1)N1CCc2ccccc2C1`, the Potency was inconclusive: 6.31 µM [inhibitor, single point]. With `COc1cccc(CNc2nc(NCc3ccccc3OC)nc3ccsc23)c1` the Potency was active: 10 µM. In the case of `CC(C)N(C(=O)c1ccc2nc(-c3ccccc3)c(-c3ccccc3)nc2c1)C(C)C`, the Potency is reported as inconclusive: 35.5 µM [inhibitor, single point]. In the case of `Fc1ccc(Br)cc1SCCc1ccncc1`, the Potency is reported as inconclusive: 15.8 µM [inhibitor, single point]. With `O=C(Nc1ccccc1N1CCN(C(=O)c2ccccc2)CC1)c1ccc([N+](=O)[O-])o1` the Potency was active: 11.2 µM. With `O=C(CSc1ncnc2nc[nH]c12)c1ccc(Cl)cc1` the Potency was inconclusive: 14.1 µM [inhibitor, partial curve, poor fit]. In the case of `O=C(CN1CCN(S(=O)(=O)c2ccc(Cl)c(Cl)c2)CC1)N1CCCCC1`, the Potency is reported as inconclusive: 20 µM [inhibitor, single point]. With `CC1CCN(S(=O)(=O)c2ccc3c(c2)oc(=O)n3CC(=O)NCc2ccc3c(c2)OCO3)CC1` the Potency was inconclusive: 14.1 µM [inhibitor, partial curve, poor fit]. For `NC(=O)c1ccc(NC(=O)CN2CCN(c3ccccc3)CC2)cc1`, the “activity, negative = inhibition” value was inactive: 1.43%. With `COc1ccc(C(=O)c2cn(Cc3ccccc3F)c3cc4c(cc3c2=O)OCO4)cc1` the Potency was inconclusive: 35.5 µM [inhibitor, single point]. With `CN(Cc1ccccc1)C(=O)COC(=O)CCC(=O)c1ccc(F)cc1` the “activity, negative = inhibition” value was inactive: -12%. With `O=C1C2C3C=CC(C3)C2C(=O)N1CCN1CCN(Cc2ccc([N+](=O)[O-])cc2)CC1` (centres undefined) the “activity, negative = inhibition” value was inactive: 3.08%. For `CC(=O)NN1C(=O)/C(=C/c2ccc(C(C)C)cc2)SC1=S`, the Potency was inconclusive: 35.5 µM [inhibitor, single point]. For `CN(C)CCN(C)C1CN(Cc2ccc(F)cc2)S(=O)(=O)C1` (centres undefined), the Potency was inconclusive: 3.98 µM [inhibitor, full curve]. For `COc1ccc(OC)c(Nc2nc(N)nc(-c3cc4ccccc4o3)n2)c1`, the Potency was inconclusive: 35.5 µM [inhibitor, single point]. With `COc1ccc(C(C(=O)NCC2CCCO2)N(C(=O)CNC(=O)c2ccco2)c2ccc(C)c(C)c2)cc1OC` (centres undefined) the Potency was inconclusive: 12.6 µM [inhibitor, partial curve, poor fit]. In the case of `CCn1nc(C(=O)OCc2cccc(S(=O)(=O)N(C)C)c2)c2ccccc2c1=O`, the Potency is reported as inconclusive: 35.5 µM [inhibitor, single point]. With `CCOC(=O)c1ccc(N2C(=O)c3n[nH]c(C)c3C2c2cccc(Br)c2)cc1` (centres undefined) the Potency was inconclusive: 15.8 µM [inhibitor, partial curve, poor fit]. For `O=C(c1ccc(N2CCN(C(=O)c3ccccc3)CC2)cc1)c1cccc(F)c1`, the Potency was inconclusive: 35.5 µM [inhibitor, single point]. With `CCCC(=O)NC(Nc1cccc(C(F)(F)F)c1)C(Cl)(Cl)Cl` (centres undefined) the Potency was inconclusive: 35.5 µM [inhibitor, single point]. For `O=C(COc1c(Cl)cc(Cl)cc1Cl)c1ccc(Cl)cc1`, the “activity, negative = inhibition” value was inactive: -18.2%. With `Cc1cc2oc(=O)sc2cc1NS(=O)(=O)c1cccc2cccnc12` the “activity, negative = inhibition” value was inactive: -1.73%. With `CCOc1ccc(N2CC(C(=O)Nc3nnc(Cc4ccc(OC)c(OC)c4)s3)CC2=O)cc1` (centres undefined) the Potency was inconclusive: 10 µM [inhibitor, single point]. For `CCN(CC)S(=O)(=O)c1ccc(NC(=O)NCc2noc3ccc(C)cc23)cc1`, the Potency was inconclusive: 14.1 µM [inhibitor, single point]. With `CC(=O)c1ccc(OCCCC(=O)Nc2cc(Cl)ccc2-n2cncn2)cc1` the Potency was inconclusive: 1 µM [inhibitor, full curve]. In the case of `O=C1[C@@H]2[C@@H]3C[C@@H]([C@H]4ON=C(c5ccc(Cl)cc5)[C@@H]34)[C@@H]2C(=O)N1C1CCCCC1`, the Potency is reported as inconclusive: 22.4 µM [inhibitor, single point]. With `Cc1nc2cccnc2n1C1CCN(S(C)(=O)=O)CC1` the Potency was inconclusive: 0.126 µM [inhibitor, partial curve, poor fit]. For `O=C(Nc1cccc(O)c1)c1cc(-c2ccccc2Cl)on1`, the Potency was inconclusive: 35.5 µM [inhibitor, single point]. For `Cc1sc2nc(SCc3nc(-c4cccs4)no3)n(-c3ccccc3)c(=O)c2c1C`, the Potency was inconclusive: 3.55 µM [inhibitor, single point]. With `CN1CCN(C(c2cccc(Cl)c2)c2ccccc2Cl)CC1` (centres undefined) the Potency was inconclusive: 35.5 µM [inhibitor, single point]. In the case of `CC(=O)Nc1sc(C)c(C)c1C(=O)OCC(=O)NC(C)c1ccccc1` (centres undefined), the “activity, negative = inhibition” value is reported as inactive: 3.96%. In the case of `CCC(=O)/C=C1/Sc2ccccc2N1CC`, the “activity, negative = inhibition” value is reported as inactive: -8.52%. In the case of `COc1ccccc1C(=O)CC(=O)C(=O)Nc1cccc([N+](=O)[O-])c1C`, the “activity, negative = inhibition” value is reported as inactive: 1.15%. In the case of `O=C(Nc1ccccc1F)Nc1ccccc1N1CCCCC1`, the Potency is reported as inconclusive: 17.8 µM [inhibitor, single point]. For `O=[N+]([O-])c1cc(Br)c2nsnc2c1N1CCOCC1`, the Potency was inconclusive: 35.5 µM [inhibitor, single point]. For `CCN1C(=O)CSC1=NC1C2CC3CC(C2)CC1C3` (centres undefined), the Potency was inconclusive: 14.1 µM [inhibitor, single point]. In the case of `COc1ccc(Cn2cccc(NC(=O)Nc3ccc(F)cc3)c2=O)cc1`, the Potency is reported as inconclusive: 7.08 µM [inhibitor, partial curve, poor fit]. In the case of `CCN1/C(=C/C=C/C=C/c2sc3ccccc3[n+]2CC)Sc2ccccc21`, the Potency is reported as active: 7.08 µM. With `CC1CCCC(C)N1C(=O)c1ccc(S(=O)(=O)NCc2ccco2)cc1` (centres undefined) the Potency was inconclusive: 35.5 µM [inhibitor, single point]. In the case of `COc1cc(-c2noc(C)c2C#Cc2ccsc2)cc(OC)c1OC`, the Potency is reported as active: 11.2 µM. With `CCc1nc2ccc(C(=O)Nc3cc(-c4ccccc4)ccc3OC)cn2c1N(CCN(C)C)CC1CC1` the Potency was inconclusive: 35.5 µM [inhibitor, single point]. In the case of `O=[N+]([O-])c1ccc(CNc2ccc(Cl)cc2)s1`, the Potency is reported as inconclusive: 14.1 µM [inhibitor, partial curve, poor fit]. For `CC(=O)Nc1ccc(SCC(Cc2ccccc2)N2CCN(CC(C)C)CCC2=O)cc1` (centres undefined), the Potency was inconclusive: 12.6 µM [inhibitor, single point]. With `COc1cccc(/C=N/NC(=O)c2c(C)nc3ccc(Cl)cn23)c1O` the “activity, negative = inhibition” value was inactive: -16.2%. With `CCCOC(=O)Nc1ccc(N2CCCCC2)cc1` the “activity, negative = inhibition” value was inactive: 9.53%. With `CCc1ccccc1OCC(=O)Nc1cccc(S(=O)(=O)N2CCCC2)c1` the Potency was inconclusive: 3.16 µM [inhibitor, partial curve, poor fit]. With `Cc1cc(=O)[nH]c2nnc(SCC(=O)Nc3ccc(OC(F)(F)F)cc3)n12` the “activity, negative = inhibition” value was inactive: -6.19%. In the case of `COCCN(CC(=O)Nc1cccc(C)c1C)C(=O)Cn1c(=O)cnc2ccccc21`, the “activity, negative = inhibition” value is reported as inactive: 1.24%. For `CCCN(Cc1cccs1)C(=O)Nc1ccc(OCC)cc1`, the “activity, negative = inhibition” value was inactive: -5.89%. For `COc1cc(C2c3cc4c(cc3OC(C)(N3CCCC3)C2C)OCO4)cc(OC)c1OC` (centres undefined), the “activity, negative = inhibition” value was inactive: -14.7%. With `COc1ccc(CCNC(=O)c2c([S-])n(-c3ccc(C)cc3)c3cccc[n+]23)cc1` the Potency was inconclusive: 35.5 µM [inhibitor, partial curve, poor fit]. With `Cc1cc(N/N=C/c2ccccc2[N+](=O)[O-])nc(-n2nc(C)cc2C)n1` the Potency was active: 2.51 µM. With `CC1CCCN(S(=O)(=O)c2ccc(NC(=O)c3cccc(-n4cnnn4)c3)cc2)C1` (centres undefined) the Potency was inconclusive: 35.5 µM [inhibitor, single point]. In the case of `COC(=O)c1c(NC(=O)COc2ncnc3ccccc23)sc(C)c1C`, the “activity, negative = inhibition” value is reported as inactive: 1.7%. With `Cc1cccc(-c2nnc(SCc3cc(=O)c4cccc(Cl)c4[nH]3)n2C)c1` the Potency was inconclusive: 25.1 µM [inhibitor, single point]. With `NS(=O)(=O)c1ccc(CCNC(=O)CSc2nc3ccsc3c(=O)n2CCCCC(=O)O)cc1` the “activity, negative = inhibition” value was inactive: 9.99%. In the case of `CCCC(=O)C1=C(O)C(C(=O)OC)C(C)(C)CC1=Nc1ccncc1` (centres undefined), the Potency is reported as inconclusive: 7.94 µM [inhibitor, partial curve, poor fit]. In the case of `COc1ccc(S(=O)(=O)N2CCN(C(=O)c3ccc([N+](=O)[O-])o3)CC2)cc1`, the Potency is reported as inconclusive: 35.5 µM [inhibitor, single point]. In the case of `O=c1oc2ccc(Br)cc2cc1S(=O)(=O)c1ccc(F)cc1`, the Potency is reported as inconclusive: 25.1 µM [inhibitor, single point]. With `Cc1cc(C)cc(C(=O)N2CCC3(CC2)NCCc2[nH]cnc23)c1` the “activity, negative = inhibition” value was inactive: -1.71%. For `O=C1CC(c2nc3ccccc3n2CCCCOc2ccccc2)CN1c1ccccc1Cl` (centres undefined), the Potency was inconclusive: 15.8 µM [inhibitor, single point]. In the case of `O=C(Cc1c[nH]c2ccccc12)NCc1ccc(Cl)cc1Cl`, the “activity, negative = inhibition” value is reported as inactive: -16.4%. With `CCC(C)(C)NC(=O)CN(Cc1cccs1)C(=O)CNS(=O)(=O)c1ccc(C)cc1` the Potency was inconclusive: 3.55 µM [inhibitor, single point]. In the case of `O=C(CSC1=NCCN1)NC(c1ccccc1)c1ccccc1`, the Potency is reported as inconclusive: 12.6 µM [inhibitor, single point]. For `O=c1cc(-c2ccccc2)[nH]n1-c1ccccc1`, the Potency was inconclusive: 35.5 µM [inhibitor, single point].
